The record followed here is ChEMBL document CHEMBL4888484, “Replenishing the malaria drug discovery pipeline: Screening and hit evaluation of the MMV Hit Generation Library 1 (HGL1) against asexual blood stage Plasmodium falciparum ,using a nano luciferase reporter read-out” (2022).

Structures are written as SMILES. Hit rate of the full screen: of about 150,000 compounds, about 540 (0.36%) showed an effect of 50% or more. The list shows a part of the results.

The subject of this assay is Plasmodium falciparum. Briefly: Primary screen in NF54 nanoGlo assay, in single point, at 2uM, 72h; a lower Z score goes with more inhibition. Type of assay: functional, Erythrocyte. To be noted: timepoint 72 hour.
The term % Inhibition denotes the drop in the measured response relative to a control, in per cent. As for `O=C(CCC(=O)NCc1ccccc1)NCCCN1CCOCC1`, the “% Inhibition” value worked out at 34% and the Z score is -0.55.

On to `Cc1ccc(/N=C(\NCCN2CCOCC2)NC(=O)c2ccc3c(c2)OCO3)cc1`, for which the “% Inhibition” value is on record as -29% and the Z score is listed as 2.62.

Regarding `COc1ncccc1NC(=O)N1CCC[C@H]1c1ccncc1`, the “% Inhibition” value is on record as -5% and the Z score is 0.77.

On to `CC(=O)N1CCN(C(=O)c2cn(Cc3ccccc3)nc2OCc2ccccc2)CC1`, for which the “% Inhibition” value was -7% and the Z score turned out to be 0.78.

With `Cc1n[nH]c(C)c1CCN(C)C(=O)c1cn(C[C@H]2CCCO2)nn1`, the “% Inhibition” value was -12% and the Z score was determined as 1.88.

For the compound `CS(=O)(=O)C1CC2CCC(C1)N2S(=O)(=O)c1ccccc1C(F)(F)F` (stereo not given), the “% Inhibition” value is -8% and the Z score is reported as 1.02.

Take `Cc1ccc(NC(=O)c2cc(S(=O)(=O)N3CCCCCC3)cn2C)cc1F`: the “% Inhibition” value is 1% and the Z score was -0.15.

In the case of `CCCc1nc(N[C@@H](C)c2nc(-c3ccccn3)no2)c2cnn(C)c2n1`, the “% Inhibition” value amounted to 6% and the Z score is listed as -0.87.

`CCOC(C)c1noc(CNC(=O)NC2CCCC2(C)C)n1` (stereo not given): the “% Inhibition” value is recorded as -6% and the Z score worked out at 0.89.

In the case of `CCN1CCN(C/C=C/COc2ccc(OC)cc2)CC1`, the “% Inhibition” value is -3% and the Z score is reported as 0.46.

On to `CCC(=O)N1CC[C@H](NCc2ccc(C)cc2Br)C1`, for which the “% Inhibition” value was -10% and the Z score came to 1.35.

On to `CCCN1C(=O)CC[C@@H]2CN(C(=O)c3cc(C)c(C)[nH]c3=O)CC[C@@H]21`, for which the “% Inhibition” value is -15% and the Z score turned out to be 1.94.

For `CCC(=O)N[C@H](c1cccc(F)c1F)C(F)(F)F`, the “% Inhibition” value is on record as -8% and the Z score is 0.97.

With `Cc1cc(C(=O)NS(C)(=O)=O)ns1`, the “% Inhibition” value was found to be 33% and the Z score is -3.77.

Consider `O=C(O)[C@H]1CN(S(=O)(=O)c2coc3ccccc23)CCC1(F)F`, for which the “% Inhibition” value is -15% and the Z score is 2.81.

Regarding `CCCc1nnc(N2CCC([C@@H](O)Cc3ccccc3)CC2)o1`, the “% Inhibition” value turned out to be 6% and the Z score was -1.1.

With `O=C(NCCc1cnc(C2CC2)nc1)N1CCC2(C=Cc3ccccc3O2)CC1`, the “% Inhibition” value is given as -5% and the Z score worked out at 0.92.

Consider `COc1ccccc1CNS(=O)(=O)c1ccc2c(c1)OC[C@@H](C(=O)N1CCOCC1)O2`, for which the “% Inhibition” value is given as -17% and the Z score is reported as 1.87.

As to `Cc1cscc1C(=O)N[C@@H](C)CC(=O)O`, the “% Inhibition” value is listed as -4% and the Z score is on record as 0.56.

With `COc1cccc([C@@H](O)Cn2nc3c(cc2=O)CCC3)c1`, the “% Inhibition” value is -12% and the Z score is recorded as 1.89.

Consider `CCNC(=O)CN(CC)C(=O)N[C@@H](CC)c1cccc(Cl)c1`, for which the “% Inhibition” value was -7% and the Z score was found to be 0.93.

Regarding `Cc1nonc1CC(=O)NCC[C@H]1CN(C2CCCCC2)CCO1`, the “% Inhibition” value was -6% and the Z score turned out to be 1.23.

In the case of `Cc1nc2cc(N3C[C@@H](C(=O)N4CCN(c5ccccc5)CC4)CC3=O)ccc2o1`, the “% Inhibition” value is -9% and the Z score is 1.83.

Consider `CCn1ncnc1[C@@H](NC(=O)c1ccncc1Cl)C1CC1`, for which the “% Inhibition” value is reported as -5% and the Z score turned out to be 0.94.

Take `CC(C)c1nccc(C(=O)N(C)CCN2CCCC2)n1`: the “% Inhibition” value is reported as -13% and the Z score is on record as 1.37.

Take `Cn1nnc2c(N3CCCC[C@@H]3Cc3ccccc3F)ncnc21`: the “% Inhibition” value is listed as -9% and the Z score was 1.39.

Turning to `O=C(Nc1ccccc1N1CCCC1=O)C1=NN(CCO)C(=O)CC1`, the “% Inhibition” value is reported as 19% and the Z score is -2.44.

Turning to `O=C1CCCN1c1ccc(OS(=O)(=O)c2ccc3c(c2)CCCC3)cc1`, the “% Inhibition” value is listed as -6% and the Z score is listed as 0.93.

As for `COc1ccc2c(c1)CN(c1nnc(C3CC3)o1)CC2`, the “% Inhibition” value came out at 33% and the Z score is -1.01.

On to `Fc1ccccc1-n1ncc2c1CCC[C@@H]2NCc1cnc(-c2ccc(Cl)cc2)nc1`, for which the “% Inhibition” value amounted to 3% and the Z score is recorded as -0.51.

On to `Cc1ccc(S(=O)(=O)N[C@H](c2nc(-c3ccc(-c4csc(C)n4)cc3)no2)C(C)C)cc1`, for which the “% Inhibition” value is given as -12% and the Z score is 1.26.

Take `O=C(c1ccccn1)N1CCN(c2cccnc2)C(=O)C1`: the “% Inhibition” value is given as -8% and the Z score was 1.53.

As for `O=C(Nc1nnc(CCCc2ccccc2)s1)c1ccccc1`, the “% Inhibition” value was -11% and the Z score was determined as 2.13.

As to `O=C(NCCc1cccs1)c1ccc(Oc2nccnc2N2CCCCC2)cc1`, the “% Inhibition” value is given as -4% and the Z score is 0.5.

As to `Cc1nn(C)c(C)c1C(=O)N(Cc1ccnc(OC(C)C)c1)C1CC1`, the “% Inhibition” value was -10% and the Z score was 0.93.

With `Cc1csc(CNC(=O)Cc2csc(C)n2)n1`, the “% Inhibition” value was -5% and the Z score is on record as 0.61.

As for `CCC(CC)C(=O)Nc1ccc(Cl)cc1Cl`, the “% Inhibition” value is -2% and the Z score turned out to be 0.25.

Regarding `CCOC(=O)N1CCC(N[C@@H](CC)c2nc(C)cs2)CC1`, the “% Inhibition” value was -7% and the Z score was found to be 0.89.

In the case of `O=c1[nH]nc2c(N3CC[C@H](NCc4ccccc4F)C3)nccn12`, the “% Inhibition” value is given as -1% and the Z score is given as 0.14.

Regarding `CC(C)(C)c1ccc(NS(=O)(=O)c2cc(F)c(F)c(F)c2)nn1`, the “% Inhibition” value is -3% and the Z score is recorded as 0.35.

As for `COC(=O)c1ccccc1CCC(=O)N1CCC[C@H]1c1ccncc1`, the “% Inhibition” value is recorded as -6% and the Z score is 0.55.

As for `CC(C)(C)OC(=O)N[C@@H](CC(=O)O)c1cccc(O)c1`, the “% Inhibition” value was -5% and the Z score is given as 0.67.

On to `CC1CCC(C)N1Cc1nc(-c2ccsc2)no1` (stereo not given), for which the “% Inhibition” value is -8% and the Z score was found to be 1.59.

For `Cc1nn(C)c(C)c1C[C@H](C)C(=O)N1CCOc2cccc(F)c21`, the “% Inhibition” value is listed as -1% and the Z score worked out at 0.19.

As for `COc1ccc(Br)c(CC(=O)N(C)c2cccc(C)n2)c1`, the “% Inhibition” value was -8% and the Z score is on record as 0.72.

On to `Cc1nn(CCN2CCN(C)CC2)cc1CN1CC(n2cccn2)C1`, for which the “% Inhibition” value worked out at 2% and the Z score is listed as -0.3.

Turning to `COc1ccc(CN2CC[C@]3(O)CCN(C(C)=O)C[C@@H]3C2)c(Cl)c1OC`, the “% Inhibition” value is listed as -7% and the Z score was 1.33.

In the case of `FC(F)Oc1ccc(-c2nc3c(cnn3Cc3cccs3)[nH]2)cc1`, the “% Inhibition” value amounted to 15% and the Z score is reported as -2.35.

For `CC(O)CC1CCCN1C(=O)C1CC=CCC1` (stereo not given), the “% Inhibition” value stood at 12% and the Z score is -1.04.

Take `CC1CC(C)CN(C(=O)C2CCC(=O)N(C)C2c2ccccc2F)C1` (stereo not given): the “% Inhibition” value is reported as 30% and the Z score is given as -3.97.

For the compound `CC1(C)C(=O)Nc2ccc(C(=O)NCC(C)(C)C3CCOCC3)cc21`, the “% Inhibition” value turned out to be 5% and the Z score is listed as -0.69.

Consider `CCCOC[C@H]1CCN(C(=O)c2[nH]c3c(C)ccc(C)c3c2C)C1`, for which the “% Inhibition” value was -13% and the Z score amounted to 1.53.

Turning to `CC1CCCCC1CC(=O)N1CCC(c2ncon2)C1` (stereo not given), the “% Inhibition” value is given as -3% and the Z score is 0.43.

Consider `Nc1cc(C(=O)N2CCC[C@@]3(CCC(=O)N(Cc4cccnc4)C3)C2)ccn1`, for which the “% Inhibition” value is recorded as -10% and the Z score is listed as 1.13.

Regarding `COc1ncccc1[C@H]1CCN(C(=O)c2c(C)noc2C(C)C)C1`, the “% Inhibition” value is recorded as -8% and the Z score came to 1.55.
